# Measurements as given in PubChem BioAssay AID588591 (National Center for Advancing Translational Sciences (NCATS), 2011).
# In all, about 390,000 compounds went through this assay and about 4,700 (1.2%) were called active. Inconclusive results, whose numbers are uncertain, are shown with a selection of clear calls. Calls come from the whole dose curve; as a rule, active = well fitted inhibition curve with a large enough effect; inconclusive = small, poorly fitted or top-dose-only effect, or another doubt; inactive = no such curve, though single readings can be large or run the other way. Where the call is inconclusive, the potency comes from a doubtful curve fit.
# Target: DNA polymerase eta (Homo sapiens) (UniProt Q9Y253)
# UniProt Q9Y253, sequence (Q9Y253 whole entry, looked up): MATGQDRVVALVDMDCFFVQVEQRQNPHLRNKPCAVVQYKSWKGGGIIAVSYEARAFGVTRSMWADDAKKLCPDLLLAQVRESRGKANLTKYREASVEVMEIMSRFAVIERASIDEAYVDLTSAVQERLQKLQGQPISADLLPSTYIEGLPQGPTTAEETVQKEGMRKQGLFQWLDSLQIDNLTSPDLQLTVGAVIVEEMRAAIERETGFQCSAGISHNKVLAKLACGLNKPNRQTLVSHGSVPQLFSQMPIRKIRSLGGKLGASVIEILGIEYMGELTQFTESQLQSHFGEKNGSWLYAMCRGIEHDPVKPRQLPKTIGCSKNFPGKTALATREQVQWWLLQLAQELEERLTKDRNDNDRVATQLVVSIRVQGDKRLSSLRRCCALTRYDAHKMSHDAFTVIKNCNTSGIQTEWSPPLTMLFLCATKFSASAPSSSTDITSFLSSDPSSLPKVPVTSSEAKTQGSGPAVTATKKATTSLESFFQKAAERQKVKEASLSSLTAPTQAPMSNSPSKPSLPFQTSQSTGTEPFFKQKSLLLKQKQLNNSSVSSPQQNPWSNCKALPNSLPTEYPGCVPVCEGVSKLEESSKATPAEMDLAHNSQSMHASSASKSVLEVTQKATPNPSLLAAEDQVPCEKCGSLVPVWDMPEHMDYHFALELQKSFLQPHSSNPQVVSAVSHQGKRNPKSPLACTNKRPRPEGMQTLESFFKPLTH
# Assay: qHTS for Inhibitors of Polymerase Eta
# Details: recombinant Pol eta, fluorescent DNA replication assay; series mostly up to 114 µM; activity change, negative = inhibition: at the top concentration
# Method in brief: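 Pol eta at 10 nM preincubated with compounds 15 min at room temperature; reaction started with fluorescent substrate (50 nM final) and read kinetically at 0 and 10 min.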
# % is set by controls: 0 for no effect and ±100 for the full control effect; potency is the fitted concentration of half-maximal effect; tags give direction and shape of the fitted curve.
SMILES,Potency,"activity change, negative = inhibition"
CCOC(=O)C1=C(CC)OC(N)=C(C#N)C1c1ccsc1 (configuration not stated),"inconclusive: 20 µM [inhibitor, partial curve, poor fit]",
CCOc1ccc(/C=C2/SC(=S)N(C(C(=O)O)c3ccccc3)C2=O)cc1OCC (configuration not stated),"inconclusive: 22.4 µM [inhibitor, full curve]",
COc1ccc(NC(=O)CN(c2ccc([N+](=O)[O-])cc2)S(=O)(=O)c2ccccc2)cc1,,inactive: -16.8%
CCCCn1c(=O)[nH]c(=O)c2c1nc(-c1ccc(-c3ccccc3Br)o1)n2CC,,inactive: -7.19%
CCOC(=O)C1CCN(C(=O)c2ccc3c(c2)NC(=O)/C(=C\c2cccc(C)c2)S3)CC1,"inconclusive: 79.4 µM [inhibitor, partial curve, poor fit]",
O=C(O)c1c(C(=O)O)c(-c2ccc(F)cc2)n2c1CCC2,,inactive: -10.6%
Cc1ccc(N(CC(=O)Nc2cc(C)ccc2C)S(C)(=O)=O)cc1,"inconclusive: 89.1 µM [inhibitor, single point]",
COC(=O)CCCC1=CC2=CC(=O)C(C)(OC(=O)CCc3ccccc3)C(=O)C2=CO1 (configuration not stated),"inconclusive: 50.1 µM [inhibitor, partial curve]",
N#Cc1c(N)oc(-c2cccs2)c1-c1cccs1,"inconclusive: 22.4 µM [inhibitor, partial curve]",
CC1=NN(c2ccccc2)C(=O)C1N=Nc1ccccc1 (configuration not stated),,inactive: -27.4%
COc1cccc(CNC(=O)[C@@H](C)N2C(=O)N3CCc4c([nH]c5ccc(OC)cc45)C3(C)C2=O)c1 (some centres not stated),,inactive: -24.8%
CCOc1cc(N2CCOCC2)c(OCC)cc1NC(=O)COC(=O)CCc1c[nH]c2ccccc12,"inconclusive: 31.6 µM [inhibitor, partial curve, poor fit]",
COc1cc(OC)cc(C(=O)N/N=C/c2ccc(OC)c(COc3ccc4ccccc4c3)c2)c1,"inconclusive: 89.1 µM [inhibitor, partial curve, poor fit]",
CC(C)(C)c1ccc(Oc2ccc(NC(=O)c3cccs3)cn2)cc1,"inconclusive: 89.1 µM [inhibitor, partial curve, poor fit]",
CC(C)OC(=O)C1Cc2ccccc2CN1S(=O)(=O)c1cccs1 (configuration not stated),"inconclusive: 44.7 µM [inhibitor, partial curve, poor fit]",
COc1ccccc1CCNC(=O)CCc1c(C)c2cc3c(C)coc3cc2oc1=O,,inactive: -5.96%
Cc1ccc(C)c(N2CCN(C(=O)c3cccn3-c3nnc(N4CCCCC4)s3)CC2)c1,,inactive: -1.17%
O=C(N/N=C/c1coc2ccc(Cl)cc2c1=O)c1ccc(O)cc1,,inactive: -8.5%
Cc1ccc2[nH]c3c(N4CCc5ccccc5C4)ncnc3c2c1,,inactive: -27.9%
Nc1ccc2c(O)cc(S(=O)(=O)O)cc2c1,active: 5.62 µM,
COc1cccc(NC(=O)C2CC(=O)N(c3ccc(Br)cc3)C2)c1 (configuration not stated),"inconclusive: 89.1 µM [inhibitor, partial curve, poor fit]",
COc1ccc(NC(=O)CCn2cnnn2)cc1,,inactive: -18.1%
CCOc1ccc(NC(=O)CN(C)S(=O)(=O)c2ccc(-c3ccc(=O)[nH]n3)s2)cc1,active: 39.8 µM,

SMILES,Potency,"activity change, negative = inhibition"
CCCCNC(=O)COC(=O)c1c2c(nc3ccccc13)/C(=C\c1cccs1)CC2,"inconclusive: 50.1 µM [inhibitor, partial curve]",
COc1ccc(NS(=O)(=O)c2cc([N+](=O)[O-])ccc2NN=Cc2ccccc2OCC(=O)O)cc1,"inconclusive: 15.8 µM [inhibitor, full curve]",
CCOC(=O)c1ccccc1NC(=O)c1ccc2nc[nH]c2c1,,inactive: -4.45%
N#CCCN(Cc1ccccc1)C(=O)CCC(=O)c1ccc(F)cc1,"inconclusive: 28.2 µM [inhibitor, partial curve, poor fit]",
NS(=O)(=O)c1ccc(NS(=O)(=O)c2ccc(NC(=O)c3ccc(-c4ccccc4)cc3)cc2)cc1,"inconclusive: 7.08 µM [inhibitor, full curve, poor fit]",
Cc1ccc(NC(=O)Cc2c(Cl)cccc2Cl)cc1S(=O)(=O)N(C)C,"inconclusive: 22.4 µM [inhibitor, partial curve, poor fit]",
Cc1cc(OCC(=O)Nc2ccc(CN3CCOCC3)cc2)c2c(C)c(C)c(=O)oc2c1,,inactive: -8.19%
O=C1CCc2cc(S(=O)(=O)NC3CCCCC3)cc3c2N1CC3,"inconclusive: 31.6 µM [inhibitor, full curve]",
CCCN(CCC)C(=O)CC(c1ccccc1)c1cc(Br)ccc1O (configuration not stated),"inconclusive: 79.4 µM [inhibitor, single point]",
CCOc1cc(N2CCOCC2)c(OCC)cc1NC(=O)c1ccc(OC)cc1,"inconclusive: 79.4 µM [inhibitor, partial curve, poor fit]",
COc1ccc(NC(=O)COc2ccccc2Cc2ccccc2)cc1S(=O)(=O)N1CCOCC1,"inconclusive: 15.8 µM [inhibitor, partial curve, poor fit]",
N#C/C(=C\c1ccco1)C(=O)NCC1CCCO1 (configuration not stated),"inconclusive: 15.8 µM [inhibitor, full curve, poor fit]",
O=C(CSc1ncnc2c1nnn2Cc1ccc(F)cc1)NC1CCCC1,"inconclusive: 100 µM [inhibitor, partial curve, poor fit]",
Cc1ccc(C(=O)C[n+]2cc(Br)cc(Br)c2)cc1[N+](=O)[O-],"inconclusive: 25.1 µM [inhibitor, partial curve, poor fit]",
Cc1cc(C)c(NC(=O)CCCN2CCN(C)CC2)c(C)c1,"inconclusive: 28.2 µM [inhibitor, single point]",
Cc1ccc2c(c1)c1c(c(=O)n(Cc3ccccc3)c(=O)n1Cc1cccc(F)c1)n2C,"inconclusive: 89.1 µM [inhibitor, partial curve, poor fit]",
O=C1NNC(c2ccccc2)=N/C1=C\c1ccco1,"inconclusive: 79.4 µM [inhibitor, partial curve]",
O=C(c1ccco1)N1N=C(c2ccccc2O)CC1c1cccs1 (configuration not stated),,inactive: -24.4%
COc1nc(N/N=C/c2ccc(-c3ccccc3[N+](=O)[O-])o2)nc(N2CCOCC2)n1,"inconclusive: 20 µM [inhibitor, partial curve, poor fit]",
CCCOc1ccc(C(=O)Nc2cc(-c3nc4ccccc4[nH]3)ccc2C)cc1,,inactive: -22.6%
COc1ccc(-c2nn(C)c3sc(C(=O)Nc4cc(OC)c(OC)c(OC)c4)cc23)cc1OC,active: 39.8 µM,
O=C(O)c1ccccc1N/N=C/c1cc(Br)cc(Br)c1O,active: 79.4 µM,
O=C(Cn1c(=O)c(=O)n(Cc2ccccc2)c2ccc(Cl)cc21)Nc1cccc(F)c1,"inconclusive: 28.2 µM [inhibitor, partial curve, poor fit]",

SMILES,Potency,"activity change, negative = inhibition"
CCOC(=O)c1cc2c(=O)n3ccccc3nc2n(CC2CCCO2)c1=NC(=O)c1ccccc1OCC (configuration not stated),,inactive: -19.4%
COc1ccc(N2CCN(C(CNC(=O)c3c(F)cccc3F)c3ccc4c(c3)OCO4)CC2)cc1 (configuration not stated),,inactive: -16.6%
Cc1ccc(-n2c(=O)c3ccc(C(=O)NCc4ccccc4Cl)cc3n(Cc3cccc(F)c3)c2=O)cc1,,inactive: 0.539%
O=C(/C=C/c1ccc(Br)o1)Nc1nccs1,"inconclusive: 25.1 µM [inhibitor, full curve]",
O=C(CN1CCC(C(=O)c2ccc3c(c2)OCCO3)CC1)Nc1ccccc1C(F)(F)F,"inconclusive: 50.1 µM [inhibitor, partial curve, poor fit]",
CCc1ccc(NC(=O)CSc2nc3c([nH]c4ccccc43)c(=O)n2C)cc1,,inactive: -10.3%
COC1=C(Br)C(=O)c2nc(C)ccc2C1=O,active: 14.1 µM,
CCO[C@H]1OC(C(=O)N2CCCCCCC2)=C[C@@H](C2CCCCC2)[C@@H]1CCCO,"inconclusive: 89.1 µM [inhibitor, partial curve, poor fit]",
Cc1oc(-c2cccc(Cl)c2)nc1CN1CCCC(C(=O)N2CCN(c3ccc(F)cc3)CC2)C1 (configuration not stated),,inactive: -20.7%
CC(C)c1nc2n(n1)C1(CCCCC1)[C@@H]1CCCC[C@@H]1N2,,inactive: -11.7%
O=C1NC(c2cccs2)Nc2sc3c(c21)CCCC3 (configuration not stated),"inconclusive: 25.1 µM [inhibitor, single point]",
O=C(CSc1nc2c([nH]c3ccccc32)c(=O)n1-c1cccc(Cl)c1)N1CCOCC1,"inconclusive: 25.1 µM [inhibitor, full curve, poor fit]",
CC1CCC2(CC1)NC(=O)N(CC(=O)Nc1ccc3c(c1)OCCO3)C2=O (configuration not stated),"inconclusive: 0.1 µM [inhibitor, partial curve, poor fit]",
O=C(COc1ccccc1/C=C1\SC(=O)NC1=O)Nc1ccccc1,active: 17.8 µM,
COCCn1c(=O)[nH]c2cc(C(=O)N3CCN(c4ccccc4F)CC3)ccc2c1=O,"inconclusive: 89.1 µM [inhibitor, partial curve, poor fit]",
CCOC(=O)C1=C(COC(=O)/C=C/c2ccc(OC)cc2)NC(=O)NC1C (configuration not stated),,inactive: -7.04%
c1cncc(-c2nc(NCC3COc4ccccc4O3)c3ccccc3n2)c1 (configuration not stated),"inconclusive: 15.8 µM [inhibitor, partial curve, poor fit]",
CCOc1ccc(/C=N/NC(=O)Cc2csc(Nc3cccc(C(F)(F)F)c3)n2)cc1,"inconclusive: 50.1 µM [inhibitor, partial curve, poor fit]",
CCOC(=O)N1CCc2c(sc3c2C(=O)NC(c2cc(OC)c(O)c(OC)c2)N3)C1 (configuration not stated),"inconclusive: 39.8 µM [inhibitor, partial curve, poor fit]",
CCOC(=O)c1ccc(N=Nc2c(C)[nH]n(-c3ccccc3)c2=O)cc1,,inactive: -8.26%
N#C/C(=C\c1cccc(O)c1)C(=O)Nc1ccc2c(c1)OCCO2,,inactive: -5.09%
